Measurements published in the supplement of paper PMC10600219.
Structures can show the parent of a compound that is named as a salt. Whole data set: some 2,800 compounds, median “cell viability relative to vehicle” near 1.1, cut for the lowest 2% near 0.19. The list shows a part of the results.

Test system: NCI-H2228 parental
Test: cell viability relative to vehicle (fraction of vehicle); NCI-H2228 is an ALK-positive lung cancer line and DTP means drug-tolerant persister; higher = less growth inhibition
Details: 100 nM; treatment time 6 days
How it was run: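 Drug-tolerant persister NCI-H2228 cells, produced by 13 days in 1000 nM of a targeted drug, and their parental counterparts were seeded into 384-well plates and, the following day, given the 3114-agent TargetMol anti-cancer compound library at 100 nM or DMSO vehicle. After 6 days, the CellTiter-Glo 3D Cell Viability Assay was used to read ATP. Each entry reports viability compared with vehicle-treated cells.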

Row | Structure (SMILES) | cell viability
1 | O=C(O)c1cn(C2CC2)c2cc(N3CCNCC3)c(F)cc2c1=O [Ciprofloxacin] | 1.11
2 | O=C(O)c1cn(C2CC2)c2cc(N3CCNCC3)c(F)cc2c1=O [Ciprofloxacin hydrochloride] | 0.894
3 | CN1CC(=O)N2[C@H](c3ccc4c(c3)OCO4)c3[nH]c4ccccc4c3C[C@@H]2C1=O [Tadalafil] | 1.28
4 | CC(C)NCC(O)COc1ccc(CCOCC2CC2)cc1 (configuration not stated) [Betaxolol hydrochloride] | 1.05
5 | CCc1nc(N)nc(N)c1-c1ccc(Cl)cc1 [Pyrimethamine] | 1.15
6 | CCn1c(C(=O)N(C2CC2)C2CC2)cc2c3c(ncn3C)c(Nc3cc(C)n(C)n3)nc21 | 0.914
7 | O=C(Nc1nc2ccc(NC(=O)C34CC5CC(CC(C5)C3)C4)cc2s1)c1ccccc1 | 1.04
8 | Nc1n[n+]([O-])c2ccccc2[n+]1[O-] [Tirapazamine] | 0.825
9 | CC(C)(OCc1nn(Cc2ccccc2)c2ccccc12)C(=O)O [Bindarit] | 1.12
10 | C=CCSC[C@H](N)C(=O)O [S-allyl-L-cysteine] | 1.18
11 | CC(NC(=O)c1ccccc1/N=C/c1c(O)ccc2ccccc12)c1ccccc1 (configuration not stated) [Sirtinol] | 1.03
12 | Cc1cccc(-c2[nH]c(C(C)(C)C)nc2-c2ccc3c(c2)OCO3)n1 | 0.917
13 | Clc1ccc(C(Cn2ccnc2)OCc2ccsc2Cl)c(Cl)c1 (configuration not stated) [Vagistat] | 1.03
14 | COc1cc(C(=O)N2CCC(N3CCN(C)CC3)CC2)ccc1Nc1ncc2c(n1)N(C)c1ccccc1C(=O)N2C | 1.11
15 | COC(=O)/C=C/c1cccc(N(Cc2ccc(-c3ccc(N(C)C)cc3)cc2)C(=O)C2CCCCC2)c1 [Fexaramine] | 1.12
16 | CC1=C(C(=O)Nc2ccc3[nH]ncc3c2)C(c2ccc(F)cc2)NC(=O)N1 (configuration not stated) | 0.961
17 | C[C@@H](Nc1cc(F)cc(F)c1)c1cc(C(=O)N(C)C)cc2c(=O)cc(N3CCOCC3)oc12 | 1
18 | c1cnc(N2CCN(Cc3ccc4c(c3)OCO4)CC2)nc1 [Piribedil] | 0.978
19 | COc1cc2c(c(OC)c1OC)-c1c(cc3c(c1OC)OCO3)CC(C)C(C)C2 (configuration not stated) [Schizandrin B] | 1.06
20 | NC(=O)CCC(N)C(=O)O (racemic) [DL-Glutamine] | 1.01
21 | CCOC(=O)c1cnc2ccc(-c3cncc(NS(=O)(=O)c4ccccc4)c3)cn12 | 0.943
22 | CC(C)(O)c1cc(Nc2cc(Oc3cn(C4CC4)nc3C3CCOCC3)ccn2)ccn1 | 1.04
23 | CC(C)(C)OC(=O)c1ncn2c1C(C)(C)Nc1ccccc1-2 | 1.14
24 | CC(C)=CCC[C@](C)(O)[C@H]1CC[C@]2(C)[C@@H]1[C@H](O)C[C@@H]1[C@@]3(C)CC[C@H](O)C(C)(C)[C@@H]3CC[C@]12C [(20S)-Protopanaxadiol] | 1.1
25 | Cc1ccc(-c2cn3c4c(sc3n2)CCCC4)cc1 [Pifithrin-β hydrobromide] | 0.992
26 | COc1cc2c(cc1OC)CC(=O)N(CCCN(C)C[C@H]1Cc3cc(OC)c(OC)cc31)CC2 [Ivabradine hydrochloride] | 1.26

Row | Structure (SMILES) | cell viability
27 | O=C(O)C(=O)O.[NH-][C@@H]1CCCC[C@H]1[NH-].[Pt+2] [Oxaliplatin] | 1.05
28 | Cc1ccc(NC(=O)c2ccc(CN3CCN(C)CC3)cc2)cc1Nc1nccc(-c2cccnc2)n1 [Imatinib] | 1.11
29 | Cc1ccc(NC(=O)c2ccc(CN3CCN(C)CC3)cc2)cc1Nc1nccc(-c2cccnc2)n1 [Imatinib Mesylate] | 1.16
30 | O=C(NCC1(c2nc(-c3ccccc3)cs2)CCOCC1)c1cccc(-c2noc(C(F)(F)F)n2)c1 | 1.03
31 | CCc1c2c(nc3ccc(O)cc13)-c1cc3c(c(=O)n1C2)COC(=O)[C@]3(O)CC | 0.0693
32 | CCc1cc2c(cc1N1CCC(N3CCOCC3)CC1)C(C)(C)c1[nH]c3cc(C#N)ccc3c1C2=O [Alectinib] | 0.592
33 | OC[C@H]1O[C@H](O[C@]2(CCl)O[C@H](CCl)[C@@H](O)[C@@H]2O)[C@H](O)[C@@H](O)[C@H]1Cl [Sucralose] | 1.23
34 | CCC/N=C1\S/C(=C\c2ccc(OC[C@H](O)CO)c(Cl)c2)C(=O)N1c1ccccc1C [Ponesimod] | 1.08
35 | CNC(=O)c1cc(Oc2ccc(NC(=O)Nc3cc(C(C)(C)C)nn3-c3ccc4ncccc4c3)c(F)c2)ccn1 | 1.27
36 | CC(C)C[C@H](NC(=O)[C@@H](NC(=O)c1cccc(-c2ccccc2)n1)[C@@H](C)O)B(O)O [Delanzomib] | 0.096
37 | COc1ccc2c(c1)c(CC(=O)O)c(C)n2C(=O)c1ccc(Cl)cc1 [Indometacin] | 1.13
38 | CN1CCC(=C2c3ccccc3CCc3cccnc32)CC1 [Azatadine Maleate] | 1.14
39 | COC(=O)C1=CO[C@@H](O[C@@H]2O[C@H](CO)[C@@H](O)[C@H](O)[C@H]2O)[C@H]2[C@@H]1[C@H](O)C[C@]2(C)OC(C)=O [8-O-Acetylshanzhiside methyl ester] | 0.898
40 | Oc1cc(O)c2c(c1)O[C@H](c1ccc(O)c(O)c1)[C@H](O)C2 [Epicatechin] | 1.09
41 | COc1ccc(C[C@H]2COC(=O)[C@@H]2Cc2ccc(O[C@@H]3O[C@H](CO)[C@@H](O)[C@H](O)[C@H]3O)c(OC)c2)cc1OC [Arctiin] | 1.13
42 | C(=C\c1ccccc1)/CN1CCN(C(c2ccccc2)c2ccccc2)CC1 [Stugeron] | 1.1
43 | C[C@]1(O)C[C@@H](c2nc(-c3ccc4ccc(-c5ccccc5)nc4c3)c3c(N)nccn32)C1 [Linsitinib] | 0.726
44 | CC(C)=CCc1c(O)ccc(C(=O)/C=C/c2ccc(O)cc2)c1O [Isobacachalcone] | 1.11
45 | COc1ccc2c(c1OC)C(=O)O[C@@H]2[C@H]1c2c(cc3c(c2OC)OCO3)CCN1C [Noscapine hydrochloride] | 1.04
46 | CC(=O)NCCCS(=O)(=O)O [Acamprosate calcium] | 1.12
47 | O=C(O)c1cc(/N=N/c2ccc(O)c(C(=O)O)c2)ccc1O [Olsalazine disodium] | 1.29
48 | N#Cc1cnc(Nc2cc(NC[C@H]3CNCCO3)c(C(F)(F)F)cn2)cn1 | 1.07
49 | CCCC(CCC)C(=O)Nc1ccn([C@@H]2O[C@H](CO)[C@@H](O)C2(F)F)c(=O)n1 | 1.12
50 | O=C(Nc1ccccc1-c1cn2c(CN3CCNCC3)csc2n1)c1cnc2ccccc2n1 [SRT1720 hydrochloride] | 0.985
51 | CC(C)(C)NCC(O)COc1cccc2c1CCC(=O)N2 (configuration not stated) [Carteolol hydrochloride] | 1.07
52 | CNC(=O)c1cc(Oc2ccc(NC(=O)Nc3ccc(Cl)c(C(F)(F)F)c3)c(F)c2)ccn1 [Regorafenib] | 0.996

Row | Structure (SMILES) | cell viability
53 | CN(C)CC(=O)Nc1ccc2[nH]c(=O)c3ccccc3c2c1 | 1.15
54 | Cn1cc(-c2cc3c(N4CCN(c5ncc([C@@](C)(N)c6ccc(F)cc6)cn5)CC4)ncnn3c2)cn1 [Avapritinib] | 0.846
55 | COc1cc2c(=O)c(-c3ccc(O)cc3)coc2cc1O [Glycitein] | 1.14
56 | N#CC(=C(O)c1ccc(Cl)cc1Cl)c1nc2ccccc2c(=O)[nH]1 [Ciliobrevin A] | 0.975
57 | CNCc1ccc(-c2cc(-c3nc(-c4ccc(S(=O)(=O)C(C)C)cc4)cnc3N)on2)cc1 [Berzosertib] | 0.976
58 | COc1ccc(OC)c(C(O)CNC(=O)CN)c1 (configuration not stated) [Midodrine hydrochloride] | 1.16
59 | C=CC(=O)Nc1ccc(CN(C(=O)Nc2c(Cl)c(OC)cc(OC)c2Cl)c2cc(Nc3ccc(N4CCN(C)CC4)cc3)ncn2)cc1 | 0.879
60 | COC[C@H]1C[C@@H](c2nc(-c3ccc4c(c3)COc3cc5c(ccc6nc([C@@H]7CC[C@H](C)N7C(=O)[C@@H](NC(=O)OC)C(C)C)[nH]c65)cc3-4)c[nH]2)N(C(=O)[C@H](NC(=O)OC)c2ccccc2)C1 [Velpatasvir] | 1.1
61 | C=CC(=O)Nc1cc2c(Nc3ccc(F)c(Cl)c3)ncnc2cc1OCCCN1CCOCC1 [Canertinib dihydrochloride] | 1.12
62 | O=C(NCc1ccccc1)c1csc(Nc2ccncn2)n1 [Thiazovivin] | 0.789
63 | CN(CC(=O)N(Cc1ccc(C2CCCCC2)cc1)c1ccc(C(=O)O)cc1)S(=O)(=O)c1c(F)c(F)c(F)c(F)c1F | 1.07
64 | OC(CNCC(O)C1CCc2cc(F)ccc2O1)C1CCc2cc(F)ccc2O1 (configuration not stated) [Nebivolol hydrochloride] | 1.1
65 | NC(=O)c1cccc2cn(-c3ccc([C@@H]4CCCNC4)cc3)nc12 [Niraparib] | 1.08
66 | Cc1cn(CCN2CCN(c3ccccc3-c3cc(C#N)cc(C(=O)NCCCN4CCCC4)c3)CC2)c2ccccc12 | 1.07
67 | O=C(CCc1ccc(O)cc1)c1c(O)cc(O)cc1O [Phloretin] | 1.11
68 | N#Cc1cccc(-c2c[nH]c3ncnc(N4CCOCC4)c23)c1 | 1.01
69 | CNC(=O)c1cccc(-c2ccc3c(N4CCOC[C@@H]4C)nc(N4CCOC[C@@H]4C)nc3n2)c1 [Vistusertib] | 0.699
70 | C=CCNC(N)=S [Allylthiourea] | 1.12
71 | CN(C)CCOC(C)(c1ccccc1)c1ccccn1 (configuration not stated) [Doxylamine succinate] | 1.06
72 | COc1cccc(-c2cc(=O)c3ccccc3o2)c1N | 1.06
73 | Oc1c(I)cc(Cl)c2cccnc12 [Clioquinol] | 1.07
74 | c1cnoc1 [Isoxazole] | 1.04
75 | CC(C)(C#N)c1cc(Cn2cncn2)cc(C(C)(C)C#N)c1 [Anastrozole] | 1.1
76 | COc1cc2nccc(Oc3ccc(NC(=O)Nc4cc(C)on4)c(Cl)c3)c2cc1OC [Tivozanib] | 1.06
77 | O=C1N[C@](c2ccc(N3CCOCC3)cc2)(c2ccsc2)CC(O)=C1Sc1ccccc1Cl | 0.999
